Data published in patent US20240101675A1 (BIOLOJIC DESIGN, published 2024).

How the values were obtained:
[1] = molecular target: T1, IL-13R/IL-4R receptor complex on HEK-Blue IL-4/IL-13 cells (UniProt P78552 22-427; P24394 26-825, limits assumed); assay: cell-based or functional assay
[2] = molecular target: T1, IL-13R/IL-4R receptor complex on …; assay: cell-based or functional assay; remark: listed apart in the source
[3] = molecular target: T2, BDG33.023; assay: competition ELISA: 20 nM IgG pre-incubated with soluble hIL-13 (0.78-200 nM), then on a plate coated with hIL-13; bound IgG by anti-human Fc-HRP
T2 construct: IgG (human IgG1 format, symmetrical IgG); also called BGD33.023; BGD33.0023
T2 sequence (VH, as listed by the source, chain 1 of 2): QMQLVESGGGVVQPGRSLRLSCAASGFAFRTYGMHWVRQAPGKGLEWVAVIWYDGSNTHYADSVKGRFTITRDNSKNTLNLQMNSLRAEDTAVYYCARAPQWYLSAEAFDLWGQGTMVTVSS
T2 sequence (VL, as listed by the source, chain 2 of 2): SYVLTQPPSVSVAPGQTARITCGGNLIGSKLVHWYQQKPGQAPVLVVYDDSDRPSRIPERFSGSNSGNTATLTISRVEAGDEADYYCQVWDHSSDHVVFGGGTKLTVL

[4] = molecular target: anti-IL-13 control antibody; assay: as above

EC50, HEK-Blue IL-4/IL-13 STAT6-SEAP reporter cells [1]: ~0.12 nM
EC50 (read off the curve); HEK-Blue IL-4/IL-13 STAT6-SEAP reporter, OD 655 nM [2]: ~0.1 nM
IC50 (read off the curve) [3]: ~20 nM
IC50 (read off the curve) [4]: ~10 nM
B1: recombinant human IL-13 (ligand)
chain: not shown
notes: also called rh-IL-13; rhIL-13
